Data on 57 compounds can be found in paper PMC4336329 (PLoS ONE, 2015).

The whole screen tested about 310,000 compounds, of which about 14,000 (4.5%) showed an effect of 50% or more. Effects have a minus sign here. Some of the results follow.
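Also: peak tail current of the secondary pulse compared with the same well before compound.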

The target in this assay is human ether-à-go-go-related gene (hERG) potassium channel (human, UniProt Q12809). As to the kind of experiment: primary screen, population patch clamp on CHO cells stably expressing hERG.
human ether-à-go-go-related gene (hERG) potassium channel, sequence (Q12809 whole entry, looked up): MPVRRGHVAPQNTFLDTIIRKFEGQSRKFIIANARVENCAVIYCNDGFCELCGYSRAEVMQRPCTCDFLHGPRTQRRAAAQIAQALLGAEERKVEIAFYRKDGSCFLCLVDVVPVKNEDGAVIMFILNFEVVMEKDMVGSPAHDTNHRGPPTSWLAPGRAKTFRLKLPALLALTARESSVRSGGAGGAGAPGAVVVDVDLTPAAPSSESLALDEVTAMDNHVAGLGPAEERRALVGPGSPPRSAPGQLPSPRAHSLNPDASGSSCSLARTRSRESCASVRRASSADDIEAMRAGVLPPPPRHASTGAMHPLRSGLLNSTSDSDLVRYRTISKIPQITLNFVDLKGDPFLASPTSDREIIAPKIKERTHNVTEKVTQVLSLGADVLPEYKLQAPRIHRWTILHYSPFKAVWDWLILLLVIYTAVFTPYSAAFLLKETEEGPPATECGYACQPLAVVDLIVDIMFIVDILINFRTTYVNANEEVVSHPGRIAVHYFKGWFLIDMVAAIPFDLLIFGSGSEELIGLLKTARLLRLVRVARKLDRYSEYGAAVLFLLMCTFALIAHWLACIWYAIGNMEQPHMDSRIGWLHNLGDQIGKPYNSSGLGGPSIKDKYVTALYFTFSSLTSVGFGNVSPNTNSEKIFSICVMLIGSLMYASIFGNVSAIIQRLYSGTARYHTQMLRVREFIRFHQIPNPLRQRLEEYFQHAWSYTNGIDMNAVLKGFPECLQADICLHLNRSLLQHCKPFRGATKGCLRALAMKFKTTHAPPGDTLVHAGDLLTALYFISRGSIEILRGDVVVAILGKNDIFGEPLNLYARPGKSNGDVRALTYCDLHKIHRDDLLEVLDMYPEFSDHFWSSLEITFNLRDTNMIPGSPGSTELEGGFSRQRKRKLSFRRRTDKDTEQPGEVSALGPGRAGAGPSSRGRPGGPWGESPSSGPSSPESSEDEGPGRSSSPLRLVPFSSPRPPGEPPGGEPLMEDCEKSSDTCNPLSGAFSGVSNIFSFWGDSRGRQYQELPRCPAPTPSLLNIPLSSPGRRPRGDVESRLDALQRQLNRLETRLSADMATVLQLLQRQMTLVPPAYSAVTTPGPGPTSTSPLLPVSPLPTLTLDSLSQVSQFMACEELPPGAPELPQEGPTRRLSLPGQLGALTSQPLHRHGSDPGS
On to `Cc1ccc(NCc2nc3ccccc3n2C)cc1`, for which the “hERG current change (%, negative = inhibition) at 10uM” value is -5.49%.
In the case of `N#C/C(=C\c1ccncc1)c1ccc(NC(N)=O)cc1`, the “hERG current change (%, negative = inhibition) at 10uM” value turned out to be 13.8%.
For the compound `C=CCOc1ccc(CNc2ccc(NC(=O)CCC)cc2)cc1OCC`, the “hERG current change (%, negative = inhibition) at 10uM” value amounted to 4.6%.
Take `CN1CCN(C2=C(Cl)C(=O)N(Cc3ccccc3)C2=O)CC1`: the “hERG current change (%, negative = inhibition) at 10uM” value is given as -31.8%.
In the case of `Cc1nc2ccccc2c(=O)n1-c1ccc(F)cc1F`, the “hERG current change (%, negative = inhibition) at 10uM” value is 3.52%.
Take `COc1ccccc1OC[C@H](O)CO`: the “hERG current change (%, negative = inhibition) at 10uM” value came out at 24%.
The figure for `Cc1ccc(CN2CCN(C(=O)c3ccncc3)CC2)cc1.O=C(O)C(=O)O` is -0.159%; for `COc1ccc(C2CC(c3ccccc3)=NN2C(=O)COC(=O)c2nc3nccc(C)n3n2)cc1` (stereo not drawn) it is 23.4%; for `Cc1cccc(-n2cnc(C(=O)NNC(=S)Nc3ccccc3)c2)n1` it is 16.2%.
As to `O=C(Nc1ccccc1C(F)(F)F)c1cnccn1`, the “hERG current change (%, negative = inhibition) at 10uM” value was 15.8%.
As for `CC(C)COC(=O)c1ccccc1OC(=O)c1ccncc1`, the figure is 5.1%; as for `N/C(=N\OC(=O)CCCOc1ccc(Cl)cc1Cl)c1ccncc1`, -28.5%; as for `N=C1C(c2ccccc2)=C(O)CN1c1ccccc1`, -1.59%.
`CCOc1ccccc1/C=C(\C#N)C(=O)Nc1cccc(C(=O)O)c1`: the “hERG current change (%, negative = inhibition) at 10uM” value is reported as -8.31%.
As to `CC(C)Cn1c(=S)[nH]c2cc(Cl)ccc21`, the “hERG current change (%, negative = inhibition) at 10uM” value amounted to 1.84%.
Consider `CCOc1ccc(N(CC(=O)NCc2cccs2)S(=O)(=O)c2c(C)noc2C)cc1`, for which the “hERG current change (%, negative = inhibition) at 10uM” value is -5.7%.
Take `COC(=O)C1CCN(C(=O)/C=C/c2ccc(OC)cc2)CC1`: the “hERG current change (%, negative = inhibition) at 10uM” value is -8.38%.
Consider `CC(C)Oc1cccc(C(=O)NC(=S)Nc2ccc(N3CCN(C)CC3)cc2)c1`, for which the “hERG current change (%, negative = inhibition) at 10uM” value is given as -7.11%.
As to `Cc1ccc(N2C(=O)CC(Sc3ncn[nH]3)C2=O)cc1` (stereo not drawn), the “hERG current change (%, negative = inhibition) at 10uM” value worked out at 12.4%.
Take `O=C(COc1ccccc1F)NCC(c1ccc(F)cc1)N1CCOCC1` (stereo not drawn): the “hERG current change (%, negative = inhibition) at 10uM” value is -1.29%.
Turning to `CC(C)C(=O)Nc1cccc(-c2cn3ccsc3n2)c1`, the “hERG current change (%, negative = inhibition) at 10uM” value stood at 1.26%.
The figure for `Cc1ccc(/C=C/C(=O)Nc2ncc(C)s2)o1` is -3.3%; for `CCOC(=O)C1CCCN(c2oc(-c3ccc(OC)cc3)nc2C#N)C1` (stereo not drawn) it is -5.97%.
`COc1ccc(CCn2c(NN)nc3c2c(=O)[nH]c(=O)n3C)cc1`: the “hERG current change (%, negative = inhibition) at 10uM” value stood at 4.22%.
Take `O=C(CSc1ncnc2sc3c(c12)CCC3)N1CCOCC1`: the “hERG current change (%, negative = inhibition) at 10uM” value is 12.2%.
`Cc1ccc(C(=O)NC(=S)Nc2ccccc2C(F)(F)F)cc1C`: the “hERG current change (%, negative = inhibition) at 10uM” value was 10.2%.
The figure for `Cc1cccc(NC(=O)c2cc(NC(=O)C3CCCCC3C(=O)O)ccc2Cl)n1` (stereo not drawn) is 4.05%; for `CN(C(=O)c1ccno1)c1nnc(-c2ccccn2)s1` it is -2.17%; for `Clc1ccc(C2=NN(c3ccccc3)C(c3ccco3)C2)cc1` (stereo not drawn) it is 14.3%.
As for `Cc1ccccc1NC(=S)N(C)Cc1cn(C)c2ccccc12`, the “hERG current change (%, negative = inhibition) at 10uM” value is given as -1.47%.
Regarding `N#Cc1cccc(NC(=O)CCn2ccnc2)c1`, the “hERG current change (%, negative = inhibition) at 10uM” value is 2.87%.
As for `COc1ccc(Oc2cc(NC(=O)c3nn(C)cc3[N+](=O)[O-])cc([N+](=O)[O-])c2)cc1`, the “hERG current change (%, negative = inhibition) at 10uM” value is listed as -1.71%.
As for `C#CCOc1ccc(C2C3=C(CC(C)(C)CC3=O)N(CC(=O)O)C3=C2C(=O)CC(C)(C)C3)cc1`, the “hERG current change (%, negative = inhibition) at 10uM” value is -2.03%.
Regarding `Cc1ccc(S(=O)(=O)CCC(=O)N(C)C2CCCCC2)cc1`, the “hERG current change (%, negative = inhibition) at 10uM” value is 8.61%.
As for `O=C(CNC(=O)c1ccccc1F)c1ccc(Br)cc1`, the “hERG current change (%, negative = inhibition) at 10uM” value is listed as 7.47%.
For `O=C(/C=C/Nc1ccc(F)c(F)c1)c1cccs1`, the “hERG current change (%, negative = inhibition) at 10uM” value is given as 9.02%.
As for `CNc1ncc(C(=O)c2ccc(F)cc2)s1`, the “hERG current change (%, negative = inhibition) at 10uM” value is listed as 5.44%.
Consider `Cl.Cn1cccc1CNC1CCCCC1`, for which the “hERG current change (%, negative = inhibition) at 10uM” value is 4.09%.
As to `Cn1nc(C(F)(F)F)c(-c2ccc(Br)cc2)c1NC(=O)c1cccnc1`, the “hERG current change (%, negative = inhibition) at 10uM” value was 0.61%.
For the compound `Cc1ccc(S(=O)(=O)Nc2nc3ccccc3s2)cc1`, the “hERG current change (%, negative = inhibition) at 10uM” value was 14.6%.
Regarding `CC(C)CCNC(=O)NC(=O)COC(=O)C1CCN(S(=O)(=O)c2ccccc2F)CC1`, the “hERG current change (%, negative = inhibition) at 10uM” value is 6.15%.
Regarding `CSc1sc2ccccc2[n+]1CCCS(=O)(=O)[O-]`, the “hERG current change (%, negative = inhibition) at 10uM” value is listed as 16.6%.
On to `O=C(c1ccc(N2CCCC2=O)cc1)N1CCN(c2ccc(Cl)cc2)CC1`, for which the “hERG current change (%, negative = inhibition) at 10uM” value is listed as -33.8%.
For `O=C(CC1Nc2c3ccccc3nc(=S)n2C1=O)NC1CCCCC1` (stereo not drawn), the “hERG current change (%, negative = inhibition) at 10uM” value was found to be 17.4%.
With `CCCCn1nnnc1SCC(=O)c1ccccc1F`, the “hERG current change (%, negative = inhibition) at 10uM” value was -4.28%.
As to `CCn1c(SCC(=O)NCc2ccco2)nnc1-c1ccncc1`, the “hERG current change (%, negative = inhibition) at 10uM” value is recorded as 18.6%.
As to `COc1ccc(/C=C/C(=O)Nc2ccccc2Cl)cc1S(=O)(=O)N1CCOCC1`, the “hERG current change (%, negative = inhibition) at 10uM” value is listed as -40.5%.
As for `C#CCOCCOCCOCCNc1nc(N2CCN(C(=O)CCCCCCCCCCNC(=O)[C@@H](CCSC)n3cc(CCO)nn3)CC2)nc(N2CCN(C(=O)CCCCCCCCCCNC(=O)[C@@H]([C@H](C)O)n3cc(C)nn3)CC2)n1`, the “hERG current change (%, negative = inhibition) at 10uM” value turned out to be 5.39%.
Consider `CCOc1ccc(S(=O)(=O)NC(C)C(=O)NCc2cccnc2)cc1` (stereo not drawn), for which the “hERG current change (%, negative = inhibition) at 10uM” value is 3.67%.
For the compound `O=C(CCc1nc2sc3c(c2c(=O)[nH]1)CCCC3)NCC(=O)Nc1ccccc1Br`, the “hERG current change (%, negative = inhibition) at 10uM” value is reported as -1.81%.
Take `Cc1cc(C)cc(NC(=O)Cn2nnc(C(=O)NCc3ccco3)c2N)c1`: the “hERG current change (%, negative = inhibition) at 10uM” value was determined as 6.01%.
For `Cc1ccc(S(=O)(=O)n2nc(C)c(S(=O)(=O)N3CCCCC3)c2C)cc1`, the “hERG current change (%, negative = inhibition) at 10uM” value stood at 25.7%.
As to `Cc1cccc(C2CC(c3ccc(F)cc3)Nc3nc(N)nn32)c1` (stereo not drawn), the “hERG current change (%, negative = inhibition) at 10uM” value is given as -34.1%.
For `COc1cc(-c2n[nH]c(=S)n2C(C)c2ccccc2)cc(OC)c1OC` (stereo not drawn), the “hERG current change (%, negative = inhibition) at 10uM” value was 9.19%.
As for `COc1cccc(NC(=O)CCNC(=O)Cn2ccc3ccccc3c2=O)c1`, the figure is -2.25%; as for `CCOC(=O)c1cn(-c2ccc([N+](=O)[O-])cc2)c2cc(Cl)c([N+](=O)[O-])cc2c1=O`, 7.14%; as for `O=C(O)c1ccc(C2(c3ccc(C(=O)O)cc3)OC(=O)c3ccccc32)cc1`, -8.81%.
